About 540 (0.36%) of roughly 150,000 compounds showed an effect of 50% or more. The list shows a part of the results.
The compounds below were run on Plasmodium falciparum (assay: Primary screen in NF54 nanoGlo assay, in single point, at 2uM, 72h; a lower Z score goes with more inhibition). Settings: timepoint 72 hour.
Format: functional, Erythrocyte
In the case of `O=C(NCCO)c1c(O)c2cccc3c2n(c1=O)CCC3`, the “% Inhibition” value was -8% and the Z score was 0.75.
In the case of `O=c1ccc(S(=O)(=O)N2CCCCCC2)c[nH]1`, the “% Inhibition” value was -1% and the Z score was 0.16.
`CCn1c(COc2ccc(F)cc2)nnc1N1CCOC(C)(C)C1` was tested, and the “% Inhibition” value was -8% and the Z score was 1.07.
For `COc1ccc(NC(=O)C2CCC2)cn1`, the “% Inhibition” value was 5% and the Z score was -0.62.
In the case of `Cc1cc(C(=O)CN2CCS(=O)(=O)C3CCCCC32)c(C)[nH]1` (stereo not given), the “% Inhibition” value was -3% and the Z score was 0.53.
For `CC[C@H](NC(=O)NCC1(OC)CCC1)c1nccs1`, the “% Inhibition” value was -9% and the Z score was 1.13.
`Nc1ccccc1[C@H]1CC1(Cl)Cl` was tested, and the “% Inhibition” value was -6% and the Z score was 0.8.
In the case of `Cc1csc(CNc2cccc(CNC(=O)OC(C)(C)C)c2)n1`, the “% Inhibition” value was -10% and the Z score was 1.49.
In the case of `CC(C)c1nn(-c2ccccc2)c(N(C)C)c1CN(CC1CC1)C(=O)c1ccccc1F`, the “% Inhibition” value was -3% and the Z score was 0.48.
`CC1CCCCC1N(C)C(=O)CS(=O)(=O)c1cccs1` (stereo not given) was tested, and the “% Inhibition” value was -14% and the Z score was 2.55.
For `O=C(c1csc(=O)[nH]1)N1CCC(Cc2ccccc2)CC1`, the “% Inhibition” value was -3% and the Z score was 0.47.
With `COCC1CCN(C(=O)[C@@H]2Cc3[nH]cnc3C3(CCCC3)N2)CC1` the “% Inhibition” value was -7% and the Z score was 1.06.
For `Cn1c(C(=O)NC[C@@H]2CCCN3CCCC[C@H]23)cc2c(Cl)cccc21`, the “% Inhibition” value was -3% and the Z score was 0.49.
`CN(CCC#N)Cc1noc(-c2ccoc2)n1` was tested, and the “% Inhibition” value was -5% and the Z score was 0.94.
`CCCO/C(=N/C(=O)c1cccc(OC)c1)NCc1ccc2c(c1)OCO2` was tested, and the “% Inhibition” value was 4% and the Z score was -0.59.
`Cc1cnn(C[C@H]2CCCS(=O)(=O)C2)c1` was tested, and the “% Inhibition” value was -3% and the Z score was 0.32.
`NC(=O)c1nc(Cn2ccnc2-c2ccc(-c3ccccc3)s2)no1` was tested, and the “% Inhibition” value was 0% and the Z score was 0.01.
`O=C(Nc1ccn(CCc2ccncc2)n1)c1cc2c(s1)CCC2` was tested, and the “% Inhibition” value was -18% and the Z score was 1.53.
`CN(C)C(=O)N1CCC(c2nc(-c3ncc[nH]3)no2)CC1` was tested, and the “% Inhibition” value was -1% and the Z score was 0.09.
For `CCC1=C(c2ccc(C)cc2)S(=O)(=O)N=C1N1CCC(C(=O)NCc2ccccc2OC)CC1`, the “% Inhibition” value was -16% and the Z score was 1.71.
`CCC(CO)N1CCN(C(CC)C(N)=O)CC1` (stereo not given) was tested, and the “% Inhibition” value was -8% and the Z score was 1.18.
With `CC(C)[C@H](Cn1c(=O)[nH]c2ccccc2c1=O)N1CCOCC1` the “% Inhibition” value was -3% and the Z score was 0.6.
In the case of `NC(=O)CN1CCC(c2ncnn2-c2cccnc2)CC1`, the “% Inhibition” value was -3% and the Z score was 0.54.
In the case of `CCN(Cc1nccn1C)C[C@H](C)c1ccccc1`, the “% Inhibition” value was 0% and the Z score was -0.04.
In the case of `C[C@H](NC(=O)C1(C#N)CCCC1)c1cccc(-n2ccnc2)c1`, the “% Inhibition” value was 10% and the Z score was -1.38.
In the case of `CC(=O)N1C[C@H]2CN(C(=O)Nc3cc(C)ccc3C)C[C@@]2(C(=O)N2CCCC2)C1`, the “% Inhibition” value was 1% and the Z score was -0.15.
For `CCOc1cccc(C(=O)NC2(C#N)CCC3(CC2)OCCO3)c1`, the “% Inhibition” value was -15% and the Z score was 1.94.
With `O=C(NC[C@]1(O)CCc2ccccc2C1)c1ccco1` the “% Inhibition” value was -15% and the Z score was 1.94.
For `Cc1nc(CN(C)C(=O)c2ccc3[nH]cnc3c2)no1`, the “% Inhibition” value was 3% and the Z score was -0.46.
`O=C(Nc1nc(-c2ccccn2)cs1)C1=COCCO1` was tested, and the “% Inhibition” value was -10% and the Z score was 1.87.
With `COCCCN(CC(=O)N(CCc1c[nH]c2ccccc12)Cc1ccc(Cl)cc1)Cc1ccccc1F` the “% Inhibition” value was -5% and the Z score was 0.96.
`COc1ccc(-n2nc(C)c3c(C(=O)N[C@@H](C)Cc4cn(C)nc4C)cc(C)nc32)cc1` was tested, and the “% Inhibition” value was 2% and the Z score was -0.27.
For `Cc1cc(=O)n(C)cc1NC(=O)N[C@@H]1c2ccccc2CC[C@@H]1O`, the “% Inhibition” value was -2% and the Z score was 0.35.
For `O=C(NCC(O)COc1ccc(F)c(F)c1)C1CC=CCC1` (stereo not given), the “% Inhibition” value was -5% and the Z score was 0.99.
`Cc1cccc(-c2nc(N3CC4(C)CC3CC(C)(C)C4)c3ccccc3n2)c1` (stereo not given) was tested, and the “% Inhibition” value was -12% and the Z score was 1.6.
With `CC[C@H](O)CN1CCC(Nc2ncnc3cc(Cl)ccc23)CC1` the “% Inhibition” value was 49% and the Z score was -5.78.
In the case of `CC[C@@H](C(=O)N(C)c1oc(C)nc1C#N)c1ccc(F)cc1`, the “% Inhibition” value was -10% and the Z score was 1.71.
`Cc1nn(C)cc1NC(=O)CN1CCc2n[nH]cc2C1` was tested, and the “% Inhibition” value was -5% and the Z score was 0.64.
With `Cc1nn(-c2ccccc2)c(C)c1-c1n[nH]c(C(=O)O)c1Br` the “% Inhibition” value was 15% and the Z score was -1.9.
With `N#Cc1ncccc1N1CCC(C(F)(F)F)CC1` the “% Inhibition” value was 3% and the Z score was -0.37.
For `Cc1c(CN2C[C@H](OC(C)C)[C@@H](O)C2)cc(C#N)n1C`, the “% Inhibition” value was 0% and the Z score was -0.03.
For `CS(=O)(=O)NC1(CC2CC2)CCN(S(=O)(=O)c2ccccc2)CC1`, the “% Inhibition” value was -7% and the Z score was 1.39.
In the case of `c1ccc(-n2ncc3c(N4CCCCCC4)nnnc32)cc1`, the “% Inhibition” value was -16% and the Z score was 2.37.
With `CCCS(=O)(=O)N(C)Cc1ccc(Br)c(F)c1` the “% Inhibition” value was -17% and the Z score was 3.13.
In the case of `CC(C)c1cc(C(=O)N[C@H]2CCN(Cc3cscn3)C[C@@H]2O)no1`, the “% Inhibition” value was 0% and the Z score was 0.06.
In the case of `Cc1csc(C(=O)NCC2CCCC23NC(=O)NC3=O)c1Cl` (stereo not given), the “% Inhibition” value was -10% and the Z score was 1.01.
For `O=C(C1CCCC1)N1CCN(c2nc3cccnc3o2)CC1`, the “% Inhibition” value was 3% and the Z score was -0.36.
`C[C@H](NC(=O)C(C)(C)N1CCCC1)c1ccc(O)c(F)c1` was tested, and the “% Inhibition” value was 4% and the Z score was -0.77.
In the case of `O=C(Cc1ccc(Cl)cc1)Nc1ccc(-c2nc3cc(Cl)ccc3o2)cc1`, the “% Inhibition” value was -3% and the Z score was 0.44.
For `Cc1nnc(CNC2CCCC(C)C2C)s1` (stereo not given), the “% Inhibition” value was -7% and the Z score was 0.84.
For `CCC(=O)Nc1cccc(OCC(=O)N2[C@@H]3CC[C@H]2CNC(=O)C3)c1`, the “% Inhibition” value was 9% and the Z score was -1.15.
For `Cc1csc(C#CCNC(=O)OC(C)(C)C)n1`, the “% Inhibition” value was -8% and the Z score was 1.23.
In the case of `CCNC(=O)c1csc(COc2ccc3c(c2)[C@H](c2ccc(C)cc2)N(C(=O)CC(C)C)CC3)n1`, the “% Inhibition” value was 32% and the Z score was -4.94.
For `O=S(=O)(NCc1cn2c(n1)CCCC2)C1COC1`, the “% Inhibition” value was -6% and the Z score was 1.13.
`CC(=O)N1CCc2cc(S(=O)(=O)N3CCC(CC(=O)Nc4ccc(C)c(Cl)c4)CC3)ccc21` was tested, and the “% Inhibition” value was 5% and the Z score was -0.82.

From ChEMBL document CHEMBL4888484, “Replenishing the malaria drug discovery pipeline: Screening and hit evaluation of the MMV Hit Generation Library 1 (HGL1) against asexual blood stage Plasmodium falciparum ,using a nano luciferase reporter read-out” (2022)
